Measured values reported in the supplement of paper PMC3334620.
Over roughly 33,000 sequences, “E-score (-0.5 to 0.5)” has its median near -0.053; the highest 2% begin near 0.37. The list shows a part of the results.

biological target: Hap1 (UniProt P0CE41); assay: PBM E-score (8-mer binding enrichment) (E-score (-0.5 to 0.5)); higher = stronger / more preferred TF binding; most listed sequences are background and not binding sites; details: protein concentration: 200 nM; construct: GST-DNA-binding domain
UniProt P0CE41, sequence (P0CE41 whole entry, the tested form may be a part): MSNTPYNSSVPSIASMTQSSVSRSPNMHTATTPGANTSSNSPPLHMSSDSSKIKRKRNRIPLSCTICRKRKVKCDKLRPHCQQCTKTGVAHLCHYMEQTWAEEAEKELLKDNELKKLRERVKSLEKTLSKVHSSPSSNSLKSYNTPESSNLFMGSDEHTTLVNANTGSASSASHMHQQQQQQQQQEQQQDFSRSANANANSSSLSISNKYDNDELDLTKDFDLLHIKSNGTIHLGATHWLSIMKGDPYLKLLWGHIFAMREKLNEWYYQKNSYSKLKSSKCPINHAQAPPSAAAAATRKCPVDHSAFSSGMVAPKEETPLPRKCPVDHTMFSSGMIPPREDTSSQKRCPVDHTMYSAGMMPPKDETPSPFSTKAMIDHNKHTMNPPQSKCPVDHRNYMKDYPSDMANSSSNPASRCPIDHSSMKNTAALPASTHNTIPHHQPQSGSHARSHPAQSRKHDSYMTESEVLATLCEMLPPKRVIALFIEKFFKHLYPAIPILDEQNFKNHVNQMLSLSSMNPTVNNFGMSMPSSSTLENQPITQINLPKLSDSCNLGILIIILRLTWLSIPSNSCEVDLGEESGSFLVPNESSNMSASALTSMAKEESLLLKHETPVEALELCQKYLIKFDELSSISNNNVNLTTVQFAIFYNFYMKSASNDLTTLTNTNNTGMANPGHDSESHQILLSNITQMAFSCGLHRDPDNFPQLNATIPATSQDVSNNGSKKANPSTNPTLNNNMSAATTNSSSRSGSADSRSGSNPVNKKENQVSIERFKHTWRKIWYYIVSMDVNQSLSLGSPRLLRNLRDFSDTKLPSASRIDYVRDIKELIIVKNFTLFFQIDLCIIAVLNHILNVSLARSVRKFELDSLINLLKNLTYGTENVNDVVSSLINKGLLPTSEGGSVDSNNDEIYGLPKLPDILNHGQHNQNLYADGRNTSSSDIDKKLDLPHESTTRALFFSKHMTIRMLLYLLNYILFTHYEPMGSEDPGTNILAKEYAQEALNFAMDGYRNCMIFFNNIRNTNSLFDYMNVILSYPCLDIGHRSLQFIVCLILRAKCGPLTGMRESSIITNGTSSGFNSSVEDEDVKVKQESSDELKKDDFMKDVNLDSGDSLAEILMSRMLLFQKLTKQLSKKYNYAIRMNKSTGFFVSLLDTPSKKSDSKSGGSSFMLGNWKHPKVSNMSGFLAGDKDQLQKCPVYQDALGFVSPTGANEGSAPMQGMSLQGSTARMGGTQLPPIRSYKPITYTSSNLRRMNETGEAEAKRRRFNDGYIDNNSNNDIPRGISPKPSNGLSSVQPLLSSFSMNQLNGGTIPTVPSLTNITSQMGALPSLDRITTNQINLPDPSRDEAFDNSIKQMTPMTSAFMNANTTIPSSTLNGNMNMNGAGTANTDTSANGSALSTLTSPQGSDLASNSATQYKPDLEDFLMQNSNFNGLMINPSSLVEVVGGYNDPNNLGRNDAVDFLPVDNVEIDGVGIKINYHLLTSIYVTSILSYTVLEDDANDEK
Outline: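 E-scores (a modified Wilcoxon-Mann-Whitney statistic) were assigned by the Universal PBM Analysis Suite to every ungapped eight-base word pooled with its reverse complement. The input came from universal all-10-mer Agilent arrays made double-stranded by primer extension and probed with GST-tagged yeast transcription factors at about 100-200 nM. Fluorescent anti-GST detected bound protein, and masliner normalised the scans.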

Row | Sequence | PBM E-score
1 | CCCTCAGC | -0.0707
2 | CCCGCGGC | 0.284
3 | GGCCTCAA | 0.082
4 | AGCCCCGG | 0.373
5 | GGGTTTTA | 0.288
6 | ACGCCCGG | 0.377
7 | AAGTCTTG | -0.0755
8 | CGGGGCTA | 0.357
9 | CTTTACTC | -0.0299
10 | AGTACCCA | -0.184
11 | CTGCTCCC | -0.0611
12 | TCCTTAAA | -0.369
13 | AAAAGCTA | -0.225
14 | ATAAAGTA | -0.119
15 | CACCCTCA | -0.191
16 | ATGCAAGA | -0.166
17 | GAAGTCTA | -0.151
18 | ACCAGGCG | -0.0945
19 | AGGATAAT | -0.2
20 | AACATCTT | -0.0575
21 | AGCATCGA | -0.081
22 | TGTGCGAA | -0.172
23 | CCATTAAG | 0.021
24 | AAAACATT | -0.309
25 | GCAATGAC | -0.195

Row | Sequence | PBM E-score
26 | CGGTAGTC | 0.197
27 | TCCCACAA | -0.0573
28 | ATTAAAAT | -0.0256
29 | CTTATTCA | -0.26
30 | TAATAAGA | -0.103
31 | CGGGACTC | 0.133
32 | ATCCCTGG | -0.246
33 | AGAAATAT | 0.0904
34 | AATAACTA | -0.237
35 | CGTCGAGA | -0.292
36 | GACGTGGC | -0.172
37 | CGGAGTAA | 0.37
38 | AAACACGC | 0.133
39 | CAAGTAGG | -0.229
40 | GACCTCTA | -0.11
41 | GACGATCA | -0.11
42 | ACGTCGCG | 0.0194
43 | GTCATAAA | -0.0397
44 | GCTTTGGA | 0.0583
45 | AACATCGC | 0.0315
46 | CAACTCCA | -0.0501
47 | AATTGGAT | -0.153
48 | ATAAAGTG | -0.0476
49 | CCTAGGAA | -0.179
50 | GATGTCTA | -0.0542

Row | Sequence | PBM E-score
51 | CCTTTACG | -0.0181
52 | AATGGAAT | 0.0363
53 | CTGAAGCC | -0.0718
54 | CTGACTCA | -0.326
55 | CAGTACGC | -0.0401
56 | CAATGTGG | -0.121
57 | ACTAGATA | -0.0762
58 | ATAGTTTC | -0.0377
59 | GGCGAGAC | -0.0884
60 | ATTTTGTC | 0.0856
61 | CAGTCGAA | -0.204
62 | AAGTTATT | 0.0401
63 | ACGCTAAA | -0.127
64 | ACCTTCAT | 0.0855
65 | GGCCATCA | -0.0951
66 | GATCTGAA | -0.206
67 | CAGTGCCC | 0.00772
68 | AATACTCC | 0.0501
69 | CGTCGGGC | 0.289
70 | GAACTAAC | 0.212
71 | CTTATCCC | 0.158
72 | CCTTTCCA | 0.0404
73 | GCCTCTAA | -0.184
74 | CGATAACC | 0.336
75 | GGTCAGAC | -0.117

Row | Sequence | PBM E-score
76 | ATCCATCA | -0.143
77 | GCACGGGA | 0.115
78 | GACCTTTA | -0.0412
79 | CTGCCCGC | 0.129
80 | CGGTTATA | 0.371
81 | GAAGCGTA | 0.0237
82 | ACTGAGGC | 0.00789
83 | AATCTATC | 0.0503
84 | AACTGGAT | 0.074
85 | AAGAGGAT | -0.151
86 | ACAAGATC | -0.204
87 | CTATGCAG | -0.193
88 | AAAATTGT | -0.0492
89 | AGGAACAC | 0.0612
90 | ATGCGACG | 0.0561
91 | AGTCATTC | -0.166
92 | CTTACGAA | -0.147
93 | GAGGGCAA | 0.0423
94 | TACTGGCA | -0.169
95 | CACCTAGA | -0.3
96 | TACTCGGA | 0.312
97 | AACCTACA | 0.00394
98 | ACTCTTCC | -0.13
99 | AACACTGG | -0.0634
100 | CGATGGAA | 0.0469

Row | Sequence | PBM E-score
101 | ACAGCCAG | -0.222
102 | ATTCATCA | -0.0185
103 | ATAAGAGC | 0.103
104 | GAAGACCA | 0.029
105 | GAGTAGAA | -0.156
106 | CGGAAGGC | 0.137
107 | ACGCGGCC | 0.0636
108 | AGGTAGTA | -0.0824
109 | CAGCCCGA | 0.188
110 | ACGCAGCG | -0.198
111 | GAGCAGCC | -0.0769
112 | GTATGTCA | -0.25
113 | CCTGCTAA | -0.181
114 | GCGCACCA | 0.097
115 | AGCCGTAA | 0.152
116 | TCTAAACA | -0.229
117 | AGCGGTGA | 0.14
118 | ACTAAGAG | 0.0875
119 | AGTAATAA | -0.309
120 | CGCATGCA | 0.137
121 | AGGCCGTA | 0.0497
122 | AGAAAGAC | -0.0936
123 | GAAATGCC | 0.16
124 | GATTTCGA | 0.0636
125 | CAGAACAG | -0.164

Row | Sequence | PBM E-score
126 | CCCGGGAG | 0.299
127 | CATAAGTC | 0.014
128 | CTACATCC | 0.0993
129 | CAGTACAC | -0.168
130 | AATAGTGC | 0.0794
131 | GGACGTCC | 0.0941
132 | CCCCAACC | -0.108
133 | TCCCTGCA | -0.109
134 | GACGTGCC | 0.0645
135 | AGGGGGTC | -0.19
136 | ATGGCCTA | 0.0189
137 | ATTAACGG | 0.35
138 | GTTGAGAA | -0.157
139 | GTACTGCA | -0.0202
140 | ACTGCTCT | -0.135
141 | GTGTCAGA | -0.178
142 | GACCAATC | -0.0486
143 | ACTTCTCG | 0.165
144 | AACTCGTC | -0.272
145 | AAGTTGAG | -0.075
146 | GGATTCGA | -0.0199
147 | AAGACTGT | -0.333
148 | CAGGTCGA | -0.154
149 | ACGAAACC | 0.121
150 | GCACCGAA | 0.181

Row | Sequence | PBM E-score
151 | AATTCGAG | -0.267
152 | CCATTTAA | -0.249
153 | ATCCTTGG | -0.0799
154 | AGAAAAAA | -0.0848
155 | CACTCAGC | -0.00402
156 | CATTGGGG | -0.191
157 | CAGGGTTC | -0.116
158 | ATCCATTC | 0.0139
159 | AAAGCGAA | 0.144
160 | AGTCTAGG | -0.31
161 | AGGGGCAA | -0.0261
162 | AAGTGATG | -0.13
163 | AGTGTTGA | -0.0591
164 | GTAAGACA | -0.0427
165 | TATTTAAA | 0.124
166 | AATTGCAC | -0.191
167 | AGTTCCAA | -0.0617
168 | GGGACCGA | 0.329
169 | GGTATTAC | 0.296
170 | CGTACTGC | -0.201
171 | AATACCCA | 0.0741
172 | AAACAAGG | -0.127
